# Results from paper PMC5700166.
# Only a part is listed here, and it is no random draw. The list includes weakly bound sequences.
# Molecular target: T1, GST-Co-NF-kB (UniProt F1ARL5)
# T1 sequence: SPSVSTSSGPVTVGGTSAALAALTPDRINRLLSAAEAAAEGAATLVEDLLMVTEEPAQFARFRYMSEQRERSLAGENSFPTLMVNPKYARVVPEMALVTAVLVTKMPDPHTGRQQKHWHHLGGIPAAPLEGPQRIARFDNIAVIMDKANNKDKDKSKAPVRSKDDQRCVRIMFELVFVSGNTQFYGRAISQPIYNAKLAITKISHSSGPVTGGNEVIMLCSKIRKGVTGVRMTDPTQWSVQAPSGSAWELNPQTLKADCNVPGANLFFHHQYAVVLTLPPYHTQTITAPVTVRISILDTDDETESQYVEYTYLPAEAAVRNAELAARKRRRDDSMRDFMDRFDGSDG
# Test: protein-binding microarray (PBM)
# Conditions: PBM: ~300 nM protein, 6 mM HEPES pH 7.8, 80 mM KCl, 0.5 mM EDTA, 0.5 mM EGTA, 6% glycerol, 35 ng/ul poly-dIdC, 1% milk, 1 h, room temperature; high values mean tight binding; double strand, one strand shown
row,Sequence,binding signal
1,CCGATTAACATCAGATAAATTCCTGATGTTAATCGGGTCTTGATTCGCTTGACGCTGCTG,-0.564 z-score
2,CCGATTAACATCAGATCACCACATGATGTTAATCGGGTCTTGATTCGCTTGACGCTGCTG,0.636 z-score
3,CCGATTAACATCATCTCCAGGTCTGATGTTAATCGGGTCTTGATTCGCTTGACGCTGCTG,-0.663 z-score

# Molecular target: T2, GST-Dm-Relish (UniProt Q94527)
# T2 sequence: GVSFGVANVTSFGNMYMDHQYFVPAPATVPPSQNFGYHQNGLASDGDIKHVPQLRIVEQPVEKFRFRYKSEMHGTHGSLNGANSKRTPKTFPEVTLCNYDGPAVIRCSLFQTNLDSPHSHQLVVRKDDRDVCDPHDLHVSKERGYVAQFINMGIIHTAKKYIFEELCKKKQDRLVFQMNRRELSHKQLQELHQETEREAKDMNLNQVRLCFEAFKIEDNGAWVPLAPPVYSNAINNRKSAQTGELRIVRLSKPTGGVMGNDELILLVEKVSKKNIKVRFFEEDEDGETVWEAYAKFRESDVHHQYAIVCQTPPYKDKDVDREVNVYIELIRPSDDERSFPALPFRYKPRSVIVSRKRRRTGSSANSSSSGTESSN
# Test: protein-binding microarray (PBM)
# Conditions: PBM: ~300 nM protein, 6 mM HEPES pH 7.8, 80 mM KCl, 0.5 mM EDTA, 0.5 mM EGTA, 6% glycerol, 35 ng/ul poly-dIdC, 1% milk, 1 h, room temperature; Ap Aiptasia and Nv Nematostella (sea anemones) / Co Capsaspora / Aq Amphimedon (sponge) / Dm Drosophila / Hu human; RHD is the Rel homology domain; high values mean tight binding; most listed sequences are background and not binding sites; double strand, one strand shown
row,Sequence,binding signal
1,CCGATTAACATCAATCAGTATGATGATGTTAATCGGGTCTTGATTCGCTTGACGCTGCTG,-0.921 z-score
2,CCGATTAACATCAGAGCGGGTTTTGATGTTAATCGGGTCTTGATTCGCTTGACGCTGCTG,0.291 z-score
3,CCGATTAACATCAATGCGGTGCGTGATGTTAATCGGGTCTTGATTCGCTTGACGCTGCTG,-0.237 z-score
4,CCGATTAACATCATCGATGGCCTTGATGTTAATCGGGTCTTGATTCGCTTGACGCTGCTG,-0.809 z-score
5,CCGATTAACATCAAGCACAGAGCTGATGTTAATCGGGTCTTGATTCGCTTGACGCTGCTG,-0.693 z-score
6,CCGATTAACATCAAGAAATTCCATGATGTTAATCGGGTCTTGATTCGCTTGACGCTGCTG,0.875 z-score
7,CCGATTAACATCAAAGAAGTTGGTGATGTTAATCGGGTCTTGATTCGCTTGACGCTGCTG,0.159 z-score
8,CCGATTAACATCATGTAACGGAGTGATGTTAATCGGGTCTTGATTCGCTTGACGCTGCTG,-0.115 z-score
9,CCGATTAACATCAGTGCGCGTGTTGATGTTAATCGGGTCTTGATTCGCTTGACGCTGCTG,-0.288 z-score
10,CCGATTAACATCACTAATCTTTTTGATGTTAATCGGGTCTTGATTCGCTTGACGCTGCTG,0.144 z-score
11,CCGATTAACATCACAACGTCTTATGATGTTAATCGGGTCTTGATTCGCTTGACGCTGCTG,-0.249 z-score
